Earlier results in PubChem BioAssay AID1259409 (Chemical Carcinogenesis Research Information System (CCRIS), 2018).
The source gives many values for each of these; only a part stands here.

System: rodent chemically induced tumor inhibition, incidence and multiplicity
Assay: CCRIS tumor inhibitor studies
Settings: Carcinogen: 7,12-DIMETHYLBENZ[A]ANTHRACENE, 57-97-6, Carcinogen: 7,12-DIMETHYLBENZ[A]ANTHRACENE, Route [Inhibitor]: ORAL, Species: RAT, Strain/Sex: SPRAGUE-DAWLEY/FEMALE, Promoter: NONE USED
Description: The CCRIS database contains chemical records with carcinogenicity, mutagenicity, tumor promotion, and tumor inhibition test results. It was developed by the National Cancer Institute (NCI). Data are derived from studies cited in primary journals, current awareness tools, NCI reports, and other sources. Test results have been reviewed by experts in carcinogenesis and mutagenesis.
CCRIS provides historical information from the years 1985 - 2011. It is no longer updated.
This is an archive assay for CCRIS tumor inhibitor studies.

In the case of O=[Se](O)O, the “tumour outcome (control, treated, inhibition, significance)” value (57-97-6, Dose [Inhibitor]: 1.05 UG/G OF A TORULA YEAST DIET DAILY FOR 36 D STARTING 22 D BEFORE CARCINOGEN TREATMENT FOLLOWED BY 0.21 UG/G OF A PUR, Dose [Inhibitor]: 1.05 UG/G OF A TORULA YEAST DIET DAILY FOR 36 D STARTING 22 D BEFORE CARCINOGEN TREATMENT FOLLOWED BY 0.21 UG/G OF A PUR, Target Tissue: Type of Lesion: MAMMARY GLAND: CARCINOMA, Dose [Carcinogen]: 7.5 MG IN 1.0 ML SESAME OIL ONCE AT 50 D OF AGE) is listed as 20/25 (80%), 17/23 (74%), 8%, not significant, the “tumour outcome (control, treated, inhibition, significance)” value (57-97-6, Dose [Inhibitor]: 1.05 UG/G OF A TORULA YEAST DIET DAILY FOR 36 D STARTING 22 D BEFORE CARCINOGEN TREATMENT FOLLOWED BY 0.21 UG/G OF A PUR, Dose [Inhibitor]: 1.05 UG/G OF A TORULA YEAST DIET DAILY FOR 36 D STARTING 22 D BEFORE CARCINOGEN TREATMENT FOLLOWED BY 0.21 UG/G OF A PUR, Target Tissue: Type of Lesion: MAMMARY GLAND: CARCINOMA, Dose [Carcinogen]: 15 MG IN 1.0 ML SESAME OIL ONCE AT 50 D OF AGE) is listed as 17/17 (100%), 17/19 (89%), 11%, not significant and the “tumour outcome (control, treated, inhibition, significance)” value (57-97-6, Dose [Inhibitor]: 2.06 UG/G OF A TORULA YEAST DIET DAILY FOR 36 D STARTING 22 D BEFORE CARCINOGEN TREATMENT FOLLOWED BY 0.21 UG/G OF A PUR, Dose [Inhibitor]: 2.06 UG/G OF A TORULA YEAST DIET DAILY FOR 36 D STARTING 22 D BEFORE CARCINOGEN TREATMENT FOLLOWED BY 0.21 UG/G OF A PUR, Target Tissue: Type of Lesion: MAMMARY GLAND: CARCINOMA, Dose [Carcinogen]: 7.5 MG IN 1.0 ML SESAME OIL ONCE AT 50 D OF AGE) is listed as 20/25 (80%), 19/24 (79%), 1%, not significant. The “tumour outcome (control, treated, inhibition, significance)” value (57-97-6, Dose [Inhibitor]: 2.06 UG/G OF A TORULA YEAST DIET DAILY FOR 36 D STARTING 22 D BEFORE CARCINOGEN TREATMENT FOLLOWED BY 0.21 UG/G OF A PUR, Dose [Inhibitor]: 2.06 UG/G OF A TORULA YEAST DIET DAILY FOR 36 D STARTING 22 D BEFORE CARCINOGEN TREATMENT FOLLOWED BY 0.21 UG/G OF A PUR, Target Tissue: Type of Lesion: MAMMARY GLAND: CARCINOMA, Dose [Carcinogen]: 15 MG IN 1.0 ML SESAME OIL ONCE AT 50 D OF AGE) was 17/17 (100%), 14/16 (88%), 12%, not significant, the “tumour outcome (control, treated, inhibition, significance)” value (57-97-6, Dose [Inhibitor]: 2.5 PPM IN DIET DAILY STARTING AT WEANING AND CONTINUING FOR DURATION OF STUDY (STUDY DURATION: 25 WK), Dose [Inhibitor]: 2.5 PPM IN DIET DAILY STARTING AT WEANING AND CONTINUING FOR DURATION OF STUDY (STUDY DURATION: 25 WK), Target Tissue: Type of Lesion: MAMMARY GLAND: NEOPLASM, Dose [Carcinogen]: 5 MG ONCE AT 50 D OF AGE) was 16/25 (64%), 9/25 (36%), 44%, p<0.05 and the “tumour outcome (control, treated, inhibition, significance)” value (57-97-6, Dose [Inhibitor]: 2.5 PPM IN DIET DAILY STARTING AT WEANING AND CONTINUING UNTIL 1 WK AFTER CARCINOGEN TREATMENT (STUDY DURATION: 25 WK), Dose [Inhibitor]: 2.5 PPM IN DIET DAILY STARTING AT WEANING AND CONTINUING UNTIL 1 WK AFTER CARCINOGEN TREATMENT (STUDY DURATION: 25 WK), Target Tissue: Type of Lesion: MAMMARY GLAND: NEOPLASM, Dose [Carcinogen]: 5 MG ONCE AT 50 D OF AGE) was 16/25 (64%), 15/25 (60%), 6%, not significant. The “tumour outcome (control, treated, inhibition, significance)” value (57-97-6, Dose [Inhibitor]: 3.4 PPM IN DRINKING WATER DAILY FOR 104 D STARTING 7 D AFTER CARCINOGEN TREATMENT AND CONTINUING FOR DURATION OF STUDY (, Dose [Inhibitor]: 3.4 PPM IN DRINKING WATER DAILY FOR 104 D STARTING 7 D AFTER CARCINOGEN TREATMENT AND CONTINUING FOR DURATION OF STUDY (, Target Tissue: Type of Lesion: MAMMARY GLAND: CARCINOMA, Dose [Carcinogen]: 5 MG IN 1 ML SESAME OIL ONCE AT 50 D OF AGE) was 38%, 5%, 87%, p<0.01.
